Experimental data as given in the supplement of paper PMC3334620.
Over roughly 33,000 sequences, “E-score (-0.5 to 0.5)” has its median near -0.041; the highest 2% begin near 0.37. The list shows a part of the results.

molecular target: T1, Ecm22 (UniProt Q05958); test: PBM E-score (8-mer binding enrichment) (E-score (-0.5 to 0.5)); higher = stronger / more preferred TF binding; most listed sequences are background and not binding sites; conditions: protein concentration: 200 nM; construct: GST-full length
T1 sequence: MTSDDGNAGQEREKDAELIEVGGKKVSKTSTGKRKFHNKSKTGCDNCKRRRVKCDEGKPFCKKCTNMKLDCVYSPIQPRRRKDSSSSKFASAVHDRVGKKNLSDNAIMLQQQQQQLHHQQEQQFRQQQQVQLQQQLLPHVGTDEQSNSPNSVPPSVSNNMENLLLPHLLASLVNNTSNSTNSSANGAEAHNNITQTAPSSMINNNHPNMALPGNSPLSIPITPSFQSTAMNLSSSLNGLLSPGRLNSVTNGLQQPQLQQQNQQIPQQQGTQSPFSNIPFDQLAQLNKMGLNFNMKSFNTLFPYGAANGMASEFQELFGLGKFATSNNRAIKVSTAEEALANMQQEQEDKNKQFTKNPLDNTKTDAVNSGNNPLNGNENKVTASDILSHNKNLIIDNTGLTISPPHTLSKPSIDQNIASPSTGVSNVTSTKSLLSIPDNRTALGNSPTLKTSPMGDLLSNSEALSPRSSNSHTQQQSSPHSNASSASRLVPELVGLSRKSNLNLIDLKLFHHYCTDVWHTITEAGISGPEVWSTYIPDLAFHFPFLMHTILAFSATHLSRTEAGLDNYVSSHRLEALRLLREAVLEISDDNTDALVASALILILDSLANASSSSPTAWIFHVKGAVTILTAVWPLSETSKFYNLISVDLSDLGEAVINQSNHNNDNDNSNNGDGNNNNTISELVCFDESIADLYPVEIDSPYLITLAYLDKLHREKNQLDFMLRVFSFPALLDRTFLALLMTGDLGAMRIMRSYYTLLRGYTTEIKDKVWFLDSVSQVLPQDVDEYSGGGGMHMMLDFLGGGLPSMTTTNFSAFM
How it was run: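 Bound GST-tagged yeast transcription factors, applied at about 100-200 nM to double-stranded universal all-10-mer Agilent arrays, were detected with fluorescent anti-GST. Scans were normalised with masliner. A modified Wilcoxon-Mann-Whitney statistic, the E-score, was assigned to each ungapped eight-base word pooled with its reverse complement by the Universal PBM Analysis Suite.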

Sequence | PBM E-score
CCAAGACC | -0.208
CTTTTTCA | -0.183
AGATATAA | 0.0987
ATCGTTCA | 0.402
CTAAAGAC | -0.258
AACCTATT | -0.0935
AGGGAACG | 0.465
ACTGATTG | -0.186
CCCTAAGA | -0.219
ACGTGAAG | 0.0312
ATGAGCAC | -0.201
CCACGTAC | 0.217
CAGCGAGA | 0.0257
AGCTATAA | -0.0374
CGGGGAAG | 0.05
GATCCAGC | 0.0799
AAAGAAAC | 0.0695
ATTCTGGC | -0.0142
AAAAATCC | -0.12
GCTCCGAA | 0.11
AGTATTCC | -0.00408
CAGCACTA | -0.0815
TATTTGCA | 0.00921
TGTCCACA | -0.289
CCCAGTTC | -0.0249

Sequence | PBM E-score
GGAGCCGA | -0.112
AAGTATTG | -0.0862
GTGTTTGA | 0.166
ACACTGAT | -0.254
GAACGGAC | 0.279
AAGCATTG | -0.0154
AAGGGTAC | 0.121
AACAAGTG | -0.137
AGGAGATC | -0.0503
AGCCTTAA | -0.0857
GTGGAGCA | -0.158
AATCTTCA | -0.0276
CGACCCAC | 0.0554
AGGAAGCC | -0.166
GAAGCTTC | -0.158
GGCATCCA | -0.2
CCGAGGTA | 0.176
GAATTCAA | 0.00313
GGTTAGCA | -0.263
AAAAATGC | -0.0643
AGATGCAC | -0.054
CAAAGTCA | -0.102
CTTGCCGC | -0.168
CTATTCGA | 0.0817
GCGTTTCA | -0.0209

Sequence | PBM E-score
GGTGTCCA | -0.122
ACTGAAAG | -0.138
CCAGCGTA | 0.188
CCCTTGGA | -0.0297
ATTACACC | 0.118
CTACGCAC | -0.0139
CGTTACAC | 0.132
AGCTATGC | -0.0776
CAATGGCA | -0.196
CTACTTAC | -0.027
CATCTGAC | -0.203
AACAATTA | 0.113
GGTGGGAC | -0.144
GCCGAACC | -0.0959
AATTCTGT | -0.164
AACTATCC | 0.0177
ATGGCGCA | 0.0936
CGATCGAA | 0.164
AATCCGCG | -0.0546
ACTATTTA | 0.133
CACATAGC | -0.133
CCAGTACC | -0.108
GAGTAGTA | 0.00049
CCTACCCG | 0.0261
AGCCGGGG | -0.213

Sequence | PBM E-score
ATGTGGTC | 0.0104
TAAGTGCA | 0.0499
AATCATAA | -0.0666
CCGCTACC | 0.135
ACCCAAAT | -0.0546
GATAGGGA | -0.176
AGACACTA | 0.084
ATGTCCCA | -0.233
GGATGCTA | 0.0216
ATTCCAAG | -0.153
TACCTGCA | 0.0113
CACTCGGA | 0.198
ACCCCGCT | 0.0272
CCAGTTGA | -0.161
GAGAAAGC | 0.0505
GATAGATC | 0.146
AACCACGT | 0.023
ACTCCTGA | -0.135
AGTACACG | 0.238
GCTGATTA | 0.105
AGAAACGG | 0.272
GACGCGTA | 0.238
GGTAACAA | 0.0669
CATACTAC | -0.0426
AAGTTGTC | -0.0591

Sequence | PBM E-score
AGTCGCCG | 0.176
CAGCTCGA | -0.127
AAAATTCT | -0.0308
GAAATCAC | 0.00502
CTGTTCCC | -0.325
CGGGGATC | 0.128
AACAATAT | 0.124
ACAAACCC | -0.217
AGGGGAGC | -0.0911
CACCGGAG | -0.319
GGACGGCC | -0.0815
CTAATTAA | -0.145
CTTAATGC | 0.151
AAACAATT | -0.261
AAACGGTG | 0.376
TACGCCCA | 0.0201
CATCCTTC | -0.132
CGGTATAG | 0.0179
AACCACTT | 0.0041
AGCTTCCC | -0.0444
TGCTACAA | -0.219
CATACAAC | -0.0403
CCCCTCAG | -0.157
AACCTGGA | -0.167
CTCCTACA | -0.279

Sequence | PBM E-score
CCGGATTC | 0.0569
ATGCTCAC | -0.0464
CCTTCGCC | -0.186
ACATCTCC | -0.0349
ATTCGCGG | -0.00497
AAGTCTAA | -0.21
CAATTTAG | -0.119
TCTCATAA | -0.0348
TGTAGAAA | -0.108
CGGGTCGC | 0.187
TAGGTAAA | -0.0335
ATTAGGGC | -0.297
AATATCCC | -0.145
CAAATGCG | 0.0144
ATTGAACC | -0.206
AGCCGCAC | -0.0313
CATCGTTC | 0.428
AACGTCAG | -0.231
AACGCTGT | -0.0173
TGAGGGCA | -0.129
GGGTCAAC | -0.0954
ACATCTAC | -0.0505
GGGTTCGA | 0.0642
GCAGTTAA | -0.0391
ATTCCTTG | -0.0666

Sequence | PBM E-score
TCCTACCA | -0.288
GAAGGAAA | -0.0206
CCTGACGA | 0.0146
CGCCCTTC | -0.089
CTAGCCTA | -0.358
TAGCGTAA | 0.0983
AGGACGGG | -0.147
AGTATTGC | -0.0643
CTCTGCGC | -0.0111
GGTACAAC | 0.0714
CTCATTGC | -0.173
GAATTTCA | -0.167
CCCTCTCG | 0.0417
CCAGGCAC | -0.208
TTCGGAAA | 0.157
CAACCAAC | -0.168
AGCCTCCA | -0.24
ATTAGATA | 0.0888
GGTGTCAA | -0.18
GAACTTCA | -0.156
GAGATAGC | -0.103
AGTGCCGA | -0.019
CAGAGTTC | -0.117
CCCGCTAG | -0.13
GCTAAAAC | -0.0742

Sequence | PBM E-score
CGCCTCAC | -0.0695
AAAAACGT | -0.0235
AGGCTTAC | -0.0801
CGGCATAC | 0.0899
CACACGAC | 0.211
AAGTTGTG | -0.00808
ATTACACG | 0.195
AACAAATA | 0.114
AGGGTAAG | -0.108
AGATGAAT | -0.242
TAAACGCA | 0.292
TCCCACGA | -0.043
CCGGACTA | -0.175
GCTAGGTA | -0.0337
GTGATCTA | 0.105
CATACGTA | 0.288
ACCACATA | -0.00349
ACGCATCG | 0.214
CTCTTTAA | -0.137
ATAACTCA | -0.0407
GAACGTAC | 0.28
GGGCATAA | -0.0832
ACTCTTGA | -0.111
TCAATTAA | -0.0509
GAACTCTA | 0.0489

Sequence | PBM E-score
CGTTGGGC | -0.225
GGAGCGAC | 0.339
AGGCTGAT | -0.145
CCAAAAAA | -0.208
GCTCCCCC | -0.255
ACCCTTCC | -0.204
CAGATTCA | -0.281
GTGGTAAA | -0.0723
GATTCTGC | 0.0157
ATCAAACG | 0.329
GCGATCGA | 0.2
ACTTCGGC | -0.0475
ATTGAAAA | -0.0292
GCTAATTA | 0.0782
ATCCCGAT | -0.0346
ATTACTGC | 0.0771
GTAGAGAA | 0.164
AGCTCCCA | -0.0499
ACCGTGCA | 0.105
